Bridge positions count the residues as written; N and C are the ends. Peptide text beside a SMILES is read from it.
Tested on: HIV-1IIIB
Experiment: HIV-1 antiviral assay (CPE reduction, MTS) in CEM-SS cells
Assay type: cell-based
Details: peptide 10 micrograms per ml, MOI approximately 0.01, 6 days post-infection

CC[C@H](C)[C@@H]1NC(=O)CNC(=O)[C@H](CCCNC(=N)N)NC(=O)CNC(=O)[C@@H]2CSSC[C@H](NC1=O)C(=O)N[C@@H](CCCNC(=N)N)C(=O)N[C@H]1CSSC[C@H](NC(=O)[C@H](CCCNC(=N)N)NC(=O)[C@@H]3CSSC[C@H](NC(=O)[C@H]([C@@H](C)CC)NC1=O)C(=O)NCC(=O)N[C@@H](CCCNC(=N)N)C(=O)NCC(=O)N[C@@H]([C@@H](C)CC)C(=O)N3)C(=O)N[C@@H]([C@@H](C)CC)C(=O)N2 [Retrocyclin-1] (cyclo(GICRCICGRGICRCICGR); disulfide 3-16, 5-14, 7-12 (inferred); ring closure inferred)
% CPE reduction in HIV-1 infected CEM-SS cells: 82.1%

— patent publication US20100204090A1, “USE OF A PEPTIDE AS A THERAPEUTIC AGENT” (priority 2007, published 2010)
